Source: PubChem BioAssay AID1508624 (National Center for Advancing Translational Sciences (NCATS), 2021)
In all, about 48,000 compounds went through this assay and about 120 (0.25%) were called active. Another 4% or so got no clear call; they are omitted. The call rests on the fitted dose curve; in most records, active means well fitted activation curve with a large enough effect; inconclusive means small, poorly fitted or top-dose-only effect, or another doubt; inactive means no such curve, though single readings can be large or run the other way. The list shows a part of the results.

assay: Primary qHTS for Identification of Small Molecule Activators of Huntingtin-Antisense Promoter Activity; settings: HEK293 HTT-AS promoter firefly luciferase reporter (activity 0% = vehicle and -100% = no light), 24 h; series mostly up to 57.5 µM; activity change, positive = activation: at the top concentration; further: nearly all actives have a fitted effect of over 55% in size
Outline: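 Quantitative HTS used concentration series of up to 57.5 uM final on HEK293 luciferase reporter cells, 24 h at 37 degrees C. Readout was Dual-Glo firefly luminescence.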

Activity change, positive = activation, inactive:
COc1ccc2oc(=O)c(-c3csc(/C(C#N)=C/c4ccc(F)cc4)n3)cc2c1 1.77%
COc1ccc(CNC(=O)c2cc3c(-c4ccccc4F)nn(C)c3s2)c(OC)c1 -49.9%
COc1ccccc1N1CCN(C(=O)C2CCN(S(=O)(=O)c3cnc[nH]3)CC2)CC1 8.32%
CCOc1ccc(NC(=O)Cn2c(=O)n(-c3ccc(C)cc3)c(=O)c3cc(OC)c(OC)cc32)cc1 -3.23%
Cc1ccc(C)c(N2CCN(C(=O)c3cnc4c(-c5ccccc5)c(C)nn4c3C)CC2)c1 -3.74%
Cc1ccc(/C=C(\C#N)C(=O)Nc2cc(C)ccc2C)cc1 24.2%
CCOC(=O)c1c(NC(C)=O)c2c3c(sc2n1Cc1nc(-c2ccccc2OCC)oc1C)CCCC3 2.7%
COc1cccc(NC(=O)Cn2cc(C(=O)C3CCCCC3)c3ccccc32)c1 -28.6%
CC(C)(C)OC(=O)N[C@H]1CCCCCC=C[C@@H]2C[C@@]2(C(=O)NS(=O)(=O)C2CC2)NC(=O)[C@@H]2C[C@@H](OC(=O)N3Cc4cccc(F)c4C3)CN2C1=O -22.2%
COc1cccc(CNC(=O)CN2C(=O)N(c3cc(C)ccc3C)S(=O)(=O)c3ccccc32)c1OC -36.6%
COc1cc(C)c(Cl)cc1S(=O)(=O)NCCc1c(C)[nH]c2ccccc12 -17.5%
Cc1ccc(C)c(CN2C(=O)c3ccccc3S(=O)c3ccc(C(=O)NCc4ccccc4Cl)cc32)c1 (configuration not stated) -15.2%
Cc1nc2c(c(C)c1CCC(=O)Nc1cccc(C(F)(F)F)c1)c(=O)n(C)c(=O)n2C -11.5%
Cc1nnc(NC(=O)CSc2nccn2-c2cccc(Cl)c2)s1 -13.3%
CC1CCCN(S(=O)(=O)c2cc3c(cc2Cl)NC(=O)CO3)C1 (configuration not stated) -25.5%
COc1ccc(C(=O)Nc2ccccc2C(=O)OCc2cc(=O)n3c4c(sc3n2)CCCC4)cc1 -4.96%
O=C(CCC(=O)N1CC2CCCN2c2ccccc21)NCc1ccccc1Cl (configuration not stated) -20.3%
COc1ccc(-c2cc(=O)n3[nH]cnc3n2)cc1 24.2%
COc1ccccc1CNc1nc2nc(C)c(Cl)c(C)n2n1 6.33%
COC(=O)c1c(NC(=O)c2cccc(OC)c2)sc2c1CCC(C(C)(C)C)C2 (configuration not stated) -30.2%
Cc1cccc(-c2nc(SCC(=O)Nc3cc(C)on3)c3c(=O)n(C)c(=O)n(C)c3n2)c1 -1.58%
Cc1ccc(NC(=O)N2CCC(N3CCN(Cc4ccccc4)C(=O)C3=O)CC2)cc1Cl 6.39%
COc1ccc(N2CCN(c3ccc(-c4nc(-c5ccccc5C)no4)cc3[N+](=O)[O-])CC2)cc1 -4.7%
Cc1ccc(-c2nnc(Nc3ccc(Br)cc3)c3ccccc23)cc1S(=O)(=O)N1CCOCC1 -14.6%
COc1ccc(-n2c(=O)c3sc4ccccc4c3n(CC(=O)Nc3cccc(C)c3)c2=O)cc1 2.07%
COc1cc(C=C2CCC/C(=C\c3ccc(O)c(OC)c3)C2=O)ccc1O -80.2%
Cc1ccc(NC(=O)C(Cc2ccccc2)NS(=O)(=O)c2ccc3c(c2)oc(=O)n3C)c(Cl)c1 (configuration not stated) -18.9%
COc1ccccc1NC(=O)c1cc(S(=O)(=O)N(C)C2CCCCC2)ccc1F -27.8%
CC1=C(C(=O)Nc2ccccc2C)C(c2cccnc2)n2nc(SCc3ccccc3)nc2N1 (configuration not stated) -3.42%
COCCNC(=O)Cn1cc(S(=O)(=O)Cc2ccccc2Cl)c2ccccc21 -3.09%
CCOC(=O)N1CCc2c(sc3c2c(=O)n(CCc2ccccc2)c(=O)n3Cc2cc(C)ccc2C)C1 -14.8%
CCOc1ccccc1NC(=O)c1cn(C2CCCC2)c(=O)c2c1c1ccccc1n2C -13.6%
COc1ccccc1NC(=O)C1=C(C)Nc2nc(SCc3ccccc3)nn2C1c1ccccn1 (configuration not stated) -32%
CCN(CC)S(=O)(=O)c1ccc2c(c1)N(CC(=O)NCCc1ccc(OC)c(OC)c1)C(=O)CO2 -11%
COc1ccc(-c2nsc(NC(=O)COc3ccc(C)c(C)c3)n2)cc1 -1.84%
CCc1ccccc1NC(=O)C1(S(=O)(=O)c2ccc(Cl)cc2)CC1 -7.39%
Cc1ccc(C)c(N2CCN(C(=O)c3cc4ccc5cccnc5c4[nH]3)CC2)c1 -7.48%
Cc1cc(C)cc(NC(=O)CN2C(=O)CSc3ccc(S(=O)(=O)N(C)C)cc32)c1 -10.1%
Cc1ccc(OCC(=O)Nc2ccc(Cl)c(-c3nc4ncccc4o3)c2)cc1C 21.6%
CCOC(=O)c1c(C)oc2ncnc(Nc3ccc(F)cc3Cl)c12 -16.7%
COc1ccccc1CNC(=O)CCn1c(=O)c2ccccc2n(CC(=O)Nc2ccc(C)cc2)c1=O -57.7%
Cc1cccc(CNC(=O)C2CCCN(S(=O)(=O)c3cn(C)cn3)C2)c1 (configuration not stated) 1.28%
CC(C)(C)[N+]([O-])=Cc1ccc(S(=O)(=O)O)cc1S(=O)(=O)O -5.51%
Cn1nnnc1SCCCNCc1ccc(-c2ccc(Br)cc2)o1 -22.7%
CCCCCn1c(=O)[nH]c2cc(C(=O)Nc3cc(OC)cc(OC)c3)ccc2c1=O -32.9%
Cc1ccc2oc(=O)c3cc(C(=O)N4CCN(c5ccccc5)CC4)sc3c2c1 -6.13%
CN(C)S(=O)(=O)c1ccc2c(c1)N(CC(=O)NCc1ccccc1)C(=O)C1CCCCN21 (configuration not stated) -6.58%
O=C(O)Cc1ccc(CCNS(=O)(=O)c2ccc(Cl)cc2)cc1 -10.6%
CCCCCNC(=O)c1c[nH]c2ccc(S(=O)(=O)N3CCC(C)CC3)cc2c1=O -6.35%
CCC1CN(C(=O)NCc2ccc(C)cc2)c2cc(C)ccc2O1 (configuration not stated) -19.2%
Cc1nn(S(=O)(=O)c2ccc(C(C)C)cc2)c(C)c1S(=O)(=O)N1CCCCCC1 -6.7%
Cc1ccc(NC(=O)CSc2nc3ccccc3nc2Cc2ccccc2F)cc1F -18.2%
CCCCOc1ccc(OC(=O)c2sc3ncn(Cc4cccc(F)c4)c(=O)c3c2C)cc1 -4.49%
COc1cc2nc(SCc3ccc(Cl)cc3)n3nc(CCn4nc(C)cc4C)nc3c2cc1OC -7.78%
CC(=O)c1sc2c(c1C)c(=O)n(-c1ccc(Cl)cc1)c(=O)n2Cc1cc(=O)n2cc(Cl)ccc2n1 14.3%
Cc1nn(C(=O)c2ccc(Cl)cc2)c(C)c1Sc1ccc(Cl)cc1 -8.14%
NC(=O)c1nnn(Cc2cc(Cl)c(C(=O)c3ccc(Cl)cc3)c(Cl)c2)c1N -7.47%
Cc1cc(NC(=O)CSc2nc(-c3ccccc3F)nc3c2c(=O)n(C)c(=O)n3C)no1 -3.88%
CCCSc1nc2sc3c(c2c(=O)n1-c1ccccc1)CCC(C)C3 (configuration not stated) 0.981%
COc1ccc(-c2oc3ncn4nc(-c5cccc(C)c5)nc4c3c2-c2ccc(OC)cc2)cc1 -13.7%
COc1cc(C(=O)Nc2nnc(S(=O)(=O)N(C)c3ccccc3)s2)cc(OC)c1OC -28%
Cc1ccc(CN2C(=O)c3ccccc3Sc3ccc(C(=O)NC4CCCCC4)cc32)cc1 -31.2%
COc1cc(C(=O)NCC(c2ccc(N(C)C)cc2)N2CCc3ccccc32)cc(OC)c1OC (configuration not stated) -27.1%
Cc1ccc(-c2nc3n(n2)C(c2ccccc2C)C=C(c2ccc(Cl)cc2)N3)cc1 (configuration not stated) -27.5%
COc1ccccc1CNC(=O)CS(=O)(=O)c1cccc2nsnc12 -3.89%
COc1ccc(CCNC(=O)c2cc(-c3ccc(C)cc3)nc3n[nH]c(-c4ccccc4)c23)cc1OC -9.87%
COc1ccc(OC)c(NC(=O)CCn2cnnn2)c1 -13.1%
COc1ccc(CNC(=O)c2cc3c(=O)[nH]c4ccc(C)cc4c3s2)c(OC)c1 -2.89%
O=C(CSc1ncc(CO)n1Cc1ccccc1)Nc1nc2ccccc2s1 -41.3%
Cc1ccn2c(Nc3ccc(F)cc3)c(-c3ccc(C)o3)nc2c1 -5.9%
O=C(NC1CC(=O)N(c2ccc(F)cc2)C1)c1cccs1 (configuration not stated) -7.05%
COC(=O)[C@@H]1CC2=CC(=O)CC[C@]2(C)[C@@]23O[C@@H]2C[C@@]2(C)[C@@H](CC[C@@]24CCC(=O)O4)[C@H]13 -1.06%
CC(C)OC(=O)C1=CN(C(=O)c2ccc(F)c(F)c2)CC(C)(C)c2c1[nH]c1ccccc21 -3.97%
COc1ccc(CNC(=O)C2CCN(c3nc4ccccc4[nH]3)CC2)c(OC)c1 -6.52%
CN1CCN(C(c2ccccc2)c2ccccc2)CC1 -11.2%
COc1cc(CN(C(=O)COc2ccc(Br)cc2)c2ccccn2)cc(OC)c1OC -34.3%
CCOC(=O)c1ccc(NC(=O)CN2C(=O)C(C)(C)c3ccccc32)cc1 -34.4%
Cc1ccc(C)c(NC(=O)c2cnn(-c3ccc(F)cc3F)c2C2CCNCC2)c1 -6.98%
CC[C@H](CO)Nc1nc(NCc2ccccc2)c2ncn(C(C)C)c2n1 -9.59%
CCCC12CN3CC(CCC)(CN(C1)C3c1ccc(OCc3ccccc3)cc1)C2=O (configuration not stated) 1.39%
Cc1cccc(C)c1NC(=O)CCSc1nc(-c2ccc3c(c2)OCO3)cc(C(F)(F)F)n1 -10.3%
Cc1ccc(Nc2ccc(N3CCN(C(=O)c4cccc([N+](=O)[O-])c4)CC3)nn2)cc1 -5.34%
COc1ccccc1NC(=O)CN(C)S(=O)(=O)c1cccc2cccnc12 -13%
O=C(CSc1ncc2c(n1)-c1ccccc1N(Cc1ccc(Cl)cc1)S2(=O)=O)c1ccc(Cl)cc1 -3.1%
Cc1cc(O)c(C(c2ccccc2)N2CCC(C)CC2)c(=O)n1Cc1ccco1 (configuration not stated) -11.7%
CCN(C(=O)c1sc2nc3n(c(=O)c2c1C)CCCC3)c1ccccc1F -2.54%
CC(=O)c1ccc(NC(=O)CSc2nnc3ccc(-c4ccc(F)cc4)nn23)cc1 9.55%
Cc1ccc(CCNC(=O)c2cc(-c3ccccc3)n[nH]2)cc1 -20.2%
CCC1=C(c2ccc(C)cc2)S(=O)(=O)N=C1N1CCC(C(=O)Nc2ccccc2C(=O)OC)CC1 -33.2%
COc1ccc(CNC(=O)CCc2c(C)nn(-c3ccc(N4CCOCC4)nn3)c2C)c(OC)c1 -13.6%
Cc1cn2c(=O)cc(COc3ccc(NC(=O)c4ccc(C(C)(C)C)cc4)cc3)nc2s1 -2.56%
CN(C)c1ccc(C(CNC(=O)c2ccc(C(C)(C)C)cc2)N2CCCC2)cc1 (configuration not stated) -17.1%
